# Experimental data as given in article PMC12136788.
# Some of the results follow.
# T1: UNK ZnF1-6 (called full-length) (human, UniProt Q9C0B0 30-357)
# T1 sequence: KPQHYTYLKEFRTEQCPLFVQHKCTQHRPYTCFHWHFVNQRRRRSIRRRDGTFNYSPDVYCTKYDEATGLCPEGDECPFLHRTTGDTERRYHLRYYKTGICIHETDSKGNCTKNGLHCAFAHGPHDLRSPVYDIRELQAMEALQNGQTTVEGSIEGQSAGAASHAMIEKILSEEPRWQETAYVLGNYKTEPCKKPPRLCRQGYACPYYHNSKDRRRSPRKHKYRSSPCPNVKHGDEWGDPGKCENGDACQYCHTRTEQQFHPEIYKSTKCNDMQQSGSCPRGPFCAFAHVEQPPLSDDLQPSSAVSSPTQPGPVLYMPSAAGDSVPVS
# B1: chr12:27755550:27755651:+|3pUTR|ENSG00000061794|msi1|total|mutant (ssRNA)
# RNA: GGGAGUUCUACAGUCCGACGAUCAUACUAAUGCUUAAUGGCAAUGAUUACUCCAGAGUUUUUUAAUUUUUACACUGGGGCAACCGACCCGGAGGUCUCUGAUUUCUUCUUGGUCUAAAGUGUUUUGAUUUUAUUUCUACAUAACAACAGAGGAUUGAGCAUCA
# B2: chr3:100749155:100750494:-|three_prime_utr|ENSG00000154175|control|control|control (ssRNA)
# RNA: GGGAGUUCUACAGUCCGACGAUCUGCCGCAUUCAUUUAAAGCUAUUUUGUUUACUAUGUAUAAAAGUCUACAAUCUAAUUAAUAGCAAUACUAGAUGUUUAUUAUUAGAAAAGAUUGCUGAGAGUAUUUAUCAGGUUUUACAACAACAGAGGAUUGAGCAUCA
# B3: ENSG00000107863:be:win_2301|CDS|ENSG00000107863|bound_else_gene|NA|bound_elsewhere_windowed (ssRNA)
# RNA: GGGAGUUCUACAGUCCGACGAUCAGACACUACCUGCUGGCUGCCCAAUGAUGCACGUCGAGAGGUCCACAUAAAAAGAAUGGAGGAAAGAAAAGCCUCGAGUACCAGUCCGCCUGGCGAUUCUUUGGCUUCCAUCCCAUUUAUCAACAGAGGAUUGAGCAUCA
# B4: chr20:53567570:53567671:-|3pUTR|ENSG00000171940|unk|total|mutant (ssRNA)
# RNA: GGGAGUUCUACAGUCCGACGAUCUCACAAGCUGAGCCAUAUGUACAUAAUCCCGAUUUUGUUUUCACCGUUUUGCACUUUUACCGCCUAUUUUUGAAGAUUAACACAUUUGCAAGAUGAUUGACUCAAUCUUUGCCUAAUCCACAACAGAGGAUUGAGCAUCA
# B5: chr5:32419879:32419980:-|CDS|ENSG00000056097|msi1|FALSE|unique (ssRNA)
# RNA: GGGAGUUCUACAGUCCGACGAUCAGUUACUGCUGCCUAUGCACCAGCAGCCGCCACAGUUGCAGUUGCCAGGCCUGCUCCAGUAGCUGUUGCAGCUGCUGCAACAGCUGCUGCUUAUGGAGGCUACCCCACUGCACACACAGCCAACAGAGGAUUGAGCAUCA
# B6: chr13:24435137:24435247:-|CDS|ENSG00000102699|unk|total|mutant (ssRNA)
# RNA: GGGAGUUCUACAGUCCGACGAUCAAACCAACAGCAACUGAACCACUAUUUAAGAAAGUCAGUCCAUGGGAAACAUCUACUUCCCGCUUUUUUCCUAUUUUGGCUCCGGCCGUUGGUUCCUAUCUUCCCCCGACUGCCCGCGCUCAACAGAGGAUUGAGCAUCA
# B7: ENSG00000070961:be:win_3551|CDS_3pUTR|ENSG00000070961|bound_else_gene|NA|bound_elsewhere_windowed (ssRNA)
# RNA: GGGAGUUCUACAGUCCGACGAUCACAAAAAUAACAAUGCUGUUGACAGUGGAAUUCACCUUACAAUAGAAAUGAACAAGUCUGCUACCUCUUCAUCCCCAGGAAGCCCACUACAUAGUUUGGAAACAUCACUCUGAUUGUAAGCAACAGAGGAUUGAGCAUCA
# B8: chr14:106088121:106088428:-|CDS|ENSG00000282639|control|control|control (ssRNA)
# RNA: GGGAGUUCUACAGUCCGACGAUCGUCCGCCAGGCUCCAGGGAAGGGACUGGAAUAUGUUUCAGCUAUUAGUAGUAAUGGGGGUAGCACAUACUACGCAGACUCCGUGAAGGGCAGAUUCACCAUCUCCAGAGACAAUUCCAAGCAACAGAGGAUUGAGCAUCA
# B9: chr19:48922626:48922741:+|3pUTR|ENSG00000104805|msi1|total|mutant (ssRNA)
# RNA: GGGAGUUCUACAGUCCGACGAUCUCCUCCGAGGGGCUUGCCUUCUCUCGUGUCCAGUGAGGUGCUCAGUGAUCGGCUUAACUCCGAGAAGCCCGCCCCCUCCCCUUCUCCGUCUGUCCCAAGAGGGUCUGCUCUGAGCCUGCGCAACAGAGGAUUGAGCAUCA
# B10: chr3:27418507:27418620:-|CDS|ENSG00000033867|unk|FALSE|bound_elsewhere (ssRNA)
# RNA: GGGAGUUCUACAGUCCGACGAUCUGAUGUAGCUUAUAAAGCAAAAGACAGAAAUGACCUCUUAUCUGGAAUUGAUGAAUUUUUAGAUCAAGUAACUGUCCUACCUCCAGGAGAGUGGGAUCCUUCUAUACGCAUAGAACCACCCAACAGAGGAUUGAGCAUCA
# B11: chr15:48879495:48879609:+|3pUTR|ENSG00000255302|msi1|total|mutant (ssRNA)
# RNA: GGGAGUUCUACAGUCCGACGAUCGACACUAAAUGUGUGUGAAUGUACAAAGAAAACAAACCAUUGCUUAUGCUGUUAUAUACCCGAGAAAUUUUGUUUUGCUUGCUGUUUUAACUUGACAGAUGAAGGACUUCCGUUGAACUUCAACAGAGGAUUGAGCAUCA
# B12: chr16:57471571:57471634:+|3pUTR|ENSG00000102978|msi1_unk|total|mutant (ssRNA)
# RNA: GGGAGUUCUACAGUCCGACGAUCACCGCCUUUAUUCAGGGGGCCUAUAAACCCUUCCAGUUCUUGCCCCAGGGCUGGCCUGCCCGCGCUUCAAAUUCCCAGGUGUCCCUAAUUUGAGAAGUAACCUUUUGGAACCGCAUCCGACAACAGAGGAUUGAGCAUCA
# B13: chrX:78656995:78658420:-|CDS|ENSG00000179300|control|control|control (ssRNA)
# RNA: GGGAGUUCUACAGUCCGACGAUCCCUAUCUGAUCUCAUCACUCAGUGCAUCAGCCUGGAAGAGAAGCCUGAUCCCAAUCCAUUAGGGAAAAGUUCCUCUGCAGAGGGAGAUGGACCCGAGAGUCCACCAGCUGAAAACCAACCCAACAGAGGAUUGAGCAUCA
# B14: chr16:70398910:70399011:-|5pUTR|ENSG00000157350|unk|FALSE|unique (ssRNA)
# RNA: GGGAGUUCUACAGUCCGACGAUCCACUUGCAUGGAACCCAAGUCCCCUGAAGCCCCUGUGCUCUCUGUUGUGAUUGGAGUUCUAGGGCUUCCCCGCUGCCGGGAACGAGGGGCCGCCUCAUUGUCUGCUCAUGAACCACAAGGCAACAGAGGAUUGAGCAUCA
# Molecular target: T1, UNK ZnF1-6 (called full-length)
# Assay: nsRBNS (natural sequence RNA bind-n-seq); RBNS binding buffer (assumed for nsRBNS): 25 mM Tris pH 7.5, 150 mM KCl, 3 mM MgCl2, 0.01% Triton X-100, 500 ug/ml BSA, 20 U/ml SUPERase-In, 4 C; UNK is unkempt and MSI1 is Musashi-1; names of the RNAs are library labels; protein concentration not given here; high values mean tight binding
row,Binder,binding signal [enrichment R]
1,B1,0.678
2,B2,1
3,B3,0.603
4,B4,0.457
5,B5,0.467
6,B6,0.485
7,B7,0.621
8,B8,1.13
9,B9,1.06
10,B10,0.413
11,B11,0.453
12,B12,0.71
13,B13,0.532
14,B14,0.679
